The list shows a part of the results.
How the values were obtained:
Experiment in all cases: glycan array binding signal (z-score within array); higher = stronger binding
Conditions in all cases: glycan notation: IUPAC condensed, linker removed
Fuc(a1-2)Gal = biological target: Fuc(a1-2)Gal
Procedure, shortened: (§1)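 Columns mapping to the same glycan were averaged after glycan names were converted to IUPAC-condensed notation. The data come from 3228 arrays in the Consortium for Functional Glycomics database, limited to those with an available protein sequence. Binding is reported as a within-array Z-score averaged across arrays of one protein sequence and across linkers.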

Fuc(a1-2)Gal(b1-3)GalNAc = biological target: Fuc(a1-2)Gal(b1-3)GalNAc
Procedure, shortened: as §1

[1] = biological target: Fuc(a1-2)Gal(b1-3)GalNAc(a1-3)[Fuc(a1-2)]Gal(b1-4)Glc
Procedure, shortened: as §1

[2] = biological target: Fuc(a1-2)Gal(b1-3)GalNAc(a1-3)[Fuc(a1-2)]Gal(b1-4)GlcNAc
Procedure, shortened: as §1

[3] = biological target: Fuc(a1-2)Gal(b1-3)GalNAc(b1-3)Gal
Procedure, shortened: as §1

[4] = biological target: Fuc(a1-2)Gal(b1-3)GalNAc(b1-3)Gal(a1-4)Gal(b1-4)Glc
Procedure, shortened: as §1

[5] = biological target: Fuc(a1-2)Gal(b1-3)GalNAc(b1-4)[Neu5Ac(a2-3)]Gal(b1-4)Glc
Procedure, shortened: as §1

Fuc(a1-2)Gal(b1-3)GlcNAc = biological target: Fuc(a1-2)Gal(b1-3)GlcNAc
Procedure, shortened: as §1

[6] = biological target: Fuc(a1-2)Gal(b1-3)GlcNAc(b1-2)Man(a1-3)[Fuc(a1-2)Gal(b1-3)GlcNAc(b1-2)Man(a1-6)]Man(b1-4)GlcNAc(b1-4)GlcNAc
Procedure, shortened: as §1

[7] = biological target: Fuc(a1-2)Gal(b1-3)GlcNAc(b1-2)Man(a1-3)[Fuc(a1-2)Gal(b1-3)GlcNAc(b1-2)Man(a1-6)]Man(b1-4)GlcNAc(b1-4)[Fuc(a1-6)]GlcNAc
Procedure, shortened: as §1

[8] = biological target: Fuc(a1-2)Gal(b1-3)GlcNAc(b1-3)Gal(b1-4)Glc
Procedure, shortened: as §1

[9] = biological target: Fuc(a1-2)Gal(b1-3)GlcNAc(b1-3)GalNAc
Procedure, shortened: as §1

[10] = biological target: Fuc(a1-2)Gal(b1-3)GlcNAc(b1-3)[Fuc(a1-2)Gal(b1-3)GlcNAc(b1-6)]GalNAc
Procedure, shortened: as §1

[11] = biological target: Fuc(a1-2)Gal(b1-3)GlcNAc(b1-3)[Gal(b1-4)GlcNAc(b1-6)]Gal(b1-4)Glc
Procedure, shortened: as §1

[12] = biological target: Fuc(a1-2)Gal(b1-3)GlcNAc(b1-3)[Neu5Ac(a2-6)Gal(b1-4)GlcNAc(b1-6)]Gal(b1-4)Glc
Procedure, shortened: as §1

[13] = biological target: Fuc(a1-2)Gal(b1-3)GlcNAc6S
Procedure, shortened: as §1

[14] = biological target: Fuc(a1-2)Gal(b1-3)[Fuc(a1-4)]GlcNAc
Procedure, shortened: as §1

[15] = biological target: Fuc(a1-2)Gal(b1-3)[Fuc(a1-4)]GlcNAc(b1-2)Man(a1-3)[Fuc(a1-2)Gal(b1-3)[Fuc(a1-4)]GlcNAc(b1-2)Man(a1-3)]Man(b1-4)GlcNAc(b1-4)GlcNAc
Procedure, shortened: as §1

[16] = biological target: Fuc(a1-2)Gal(b1-3)[Fuc(a1-4)]GlcNAc(b1-2)Man(a1-3)[Fuc(a1-2)Gal(b1-3)[Fuc(a1-4)]GlcNAc(b1-2)Man(a1-6)]Man(b1-4)GlcNAc(b1-4)[Fuc(a1-6)]GlcNAc(b1-4)[Fuc(a1-6)]GlcNAc
Procedure, shortened: as §1

[17] = biological target: Fuc(a1-2)Gal(b1-3)[Fuc(a1-4)]GlcNAc(b1-3)[Fuc(a1-3)[Gal(b1-4)]GlcNAc(b1-6)]Gal(b1-4)Glc
Procedure, shortened: as §1

[18] = biological target: Fuc(a1-2)Gal(b1-3)[Fuc(a1-4)]GlcNAc(b1-3)[Gal(b1-4)GlcNAc(b1-6)]Gal(b1-4)Glc
Procedure, shortened: as §1

[19] = biological target: Fuc(a1-2)Gal(b1-4)Fuc(a1-3)]GlcNAc(b1-2)Man(a1-3)[Fuc(a1-2)Gal(b1-4)[Fuc(a1-3)]GlcNAc(b1-2)Man(a1-6)]Man(b1-4)GlcNAc(b1-4)GlcNAc
Procedure, shortened: as §1

Fuc(a1-2)Gal(b1-4)Glc = biological target: Fuc(a1-2)Gal(b1-4)Glc
Procedure, shortened: as §1

Fuc(a1-2)Gal(b1-4)Glc6S = biological target: Fuc(a1-2)Gal(b1-4)Glc6S
Procedure, shortened: as §1

Fuc(a1-2)Gal(b1-4)GlcNAc = biological target: Fuc(a1-2)Gal(b1-4)GlcNAc
Procedure, shortened: as §1

[20] = biological target: Fuc(a1-2)Gal(b1-4)GlcNAc(b1-2)Man
Procedure, shortened: as §1

[21] = biological target: Fuc(a1-2)Gal(b1-4)GlcNAc(b1-2)Man(a1-3)[Fuc(a1-2)Gal(b1-4)GlcNAc(b1-2)Man(a1-6)]Man(b1-4)GlcNAc(b1-4)GlcNAc
Procedure, shortened: as §1

[22] = biological target: Fuc(a1-2)Gal(b1-4)GlcNAc(b1-2)Man(a1-3)[Fuc(a1-2)Gal(b1-4)GlcNAc(b1-2)Man(a1-6)]Man(b1-4)GlcNAc(b1-4)[Fuc(a1-6)]GlcNAc
Procedure, shortened: as §1

[23] = biological target: Fuc(a1-2)Gal(b1-4)GlcNAc(b1-2)[Fuc(a1-2)Gal(b1-4)GlcNAc(b1-4)]Man(a1-3)[Fuc(a1-2)Gal(b1-4)GlcNAc(b1-2)Man(a1-6)]Man(b1-4)GlcNAc(b1-4)GlcNAc
Procedure, shortened: as §1

[24] = biological target: Fuc(a1-2)Gal(b1-4)GlcNAc(b1-3)Gal(b1-4)GlcNAc
Procedure, shortened: as §1

B1: CBM13 2a (Mycobacterium tuberculosum), P64849 (protein)
chain: DGPVQLKSRLGDVCLDAPSGSWFSPLVINPCNGTDFQRWNLTDDRQVESVAFPGECVNIGNALWARLQPCVNWISQHWTVQPDGLVKSDLDACLTVLGGPDPGTWVSTRWCDPNAPDQQWDSVPLEHHHHHH
glycan array binding signal (z-score) (Fuc(a1-2)Gal): -0.264
glycan array binding signal (z-score) (Fuc(a1-2)Gal(b1-3)GalNAc): -0.217
glycan array binding signal (z-score) [1]: -0.047
glycan array binding signal (z-score) [2]: -0.177
glycan array binding signal (z-score) [3]: -0.308
glycan array binding signal (z-score) [4]: -0.34
glycan array binding signal (z-score) [5]: -0.189
glycan array binding signal (z-score) (Fuc(a1-2)Gal(b1-3)GlcNAc): -0.27
glycan array binding signal (z-score) [6]: 0.181
glycan array binding signal (z-score) [7]: -0.067
glycan array binding signal (z-score) [8]: -0.265
glycan array binding signal (z-score) [9]: -0.307
glycan array binding signal (z-score) [10]: -0.162
glycan array binding signal (z-score) [11]: -0.299
glycan array binding signal (z-score) [12]: 0.016
glycan array binding signal (z-score) [13]: 0
glycan array binding signal (z-score) [14]: -0.206
glycan array binding signal (z-score) [15]: 0.318
glycan array binding signal (z-score) [16]: -0.061
glycan array binding signal (z-score) [17]: -0.282
glycan array binding signal (z-score) [18]: -0.247
glycan array binding signal (z-score) [19]: 0.139
glycan array binding signal (z-score) (Fuc(a1-2)Gal(b1-4)Glc): -0.079
glycan array binding signal (z-score) (Fuc(a1-2)Gal(b1-4)Glc6S): -0.081
glycan array binding signal (z-score) (Fuc(a1-2)Gal(b1-4)GlcNAc): -0.294
glycan array binding signal (z-score) [20]: -0.076
glycan array binding signal (z-score) [21]: -0.022
glycan array binding signal (z-score) [22]: 0.023
glycan array binding signal (z-score) [23]: 0.472
glycan array binding signal (z-score) [24]: -0.362
